PubChem BioAssay AID652106 (National Center for Advancing Translational Sciences (NCATS), 2013)
The campaign covered roughly 370,000 compounds. About 500 (0.14%) were called active. Inconclusive results, whose numbers are uncertain, are shown with a selection of clear calls. The call rests on the fitted dose curve; in most records, active means well fitted activation curve with a large enough effect; inconclusive means small, poorly fitted or top-dose-only effect; inactive means no such curve, though single readings can be large or run the other way. Where the call is inconclusive, the potency comes from a doubtful curve fit.

assay: qHTS of alpha-syn Inhibitors; settings: Yeast expressing alpha-synuclein, BacTiter-Glo, 24 h; Potency: growth rescue unless noted; growth rescue (activation): at 46.1 µM (top of the series) unless noted; further: nearly all actives have a fitted effect of over 65% in size; on growth rescue (activation): % of control where 0% means no effect
How it was run: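 Screening used galactose-induced yeast with toxic alpha-synuclein levels, exposed to compound for 24 hr at 30 deg C. Cell growth, read with BacTiter-Glo luminescence, gave the measured signal.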
Potency means the concentration at half of the fitted maximal effect; tags describe the fitted curve by direction and shape.

Growth rescue (activation), inactive:
CCCCCCCNC(=O)C1(CC2CC(c3cccc(Br)c3)=NO2)CCN(C(=O)C2(C)CC2)CC1 (stereo unspecified) 0.649%, Cc1cccc(NS(=O)(=O)c2ccccc2)n1 -2.64%, CCOc1ccc2nc(NCCNC(=O)Nc3cccc(C)c3)c(C#N)cc2c1 1.13%, Cc1cc(N2CCOCC2)nc2ccc(NC(=O)CCC(=O)N3CCN(c4ccccc4)CC3)cc12 4.25%, Cc1cccc(OCC(=O)N/N=C/CC(C)c2ccccc2)c1C (stereo unspecified) -10.9%, CCC(C(=O)c1ccc2ncccc2c1)c1ccccc1 (stereo unspecified) 7.52%, COc1ccc(CC2=C(O)c3ccccc3C(=O)C2=O)cc1 5.56%, CCOC(=O)Cn1nc(/C=C/c2ccc(C(C)C)cc2)ccc1=O 17.6%, C=CCN1C(=O)c2ccc(C(=O)NCC(c3ccccc3)N(C)C)cc2C1=O (stereo unspecified) -23.5%, COC(=O)c1ccc(OCC2c3cc(OC)c(OC)cc3CCN2C(=O)C(C)C)cc1 (stereo unspecified) -3.27%, CCOC(=O)c1c(-c2cccc([N+](=O)[O-])c2)csc1NC(=O)C1CC1 4.89%, CC(C)c1ccccc1NC(=O)Nc1nnc([C@H]2C[C@H](O)[C@@H](CO)O2)s1 2.81%, CC1(C)CC(=O)C2=C(C1)N1C(=C(C#N)C2c2ccccc2Cl)N=C(N)c2ccccc21 (stereo unspecified) 1.96%, CCCOc1cccc(C(=O)Nc2cccc(-c3nc4ncccc4o3)c2C)c1 2.72%, Cc1ccc2c(c1)nnn2C1CCN(C(=O)c2ccccc2F)CC1 -5.43%, CCOC(=O)c1c(NC(=O)C2=C(C)NC(=S)NC2c2ccccc2C(F)(F)F)sc(C)c1C (stereo unspecified) -0.0141%, CCCSc1cc(N2CCCC2)nc(-c2ccccc2)n1 -6.44%

Potency, active:
CC(=O)N1CCc2c(sc(NC(=O)CSc3ccccc3)c2-c2nc3ccccc3s2)C1 3.98 µM, CCc1nnc(NC(=O)c2ccc(S(=O)(=O)N3CCCC(C)C3)cc2)o1 (stereo unspecified) 22.4 µM, O=C(OCc1cc(Cl)cc2c1OCOC2)c1cccnc1Cl 15.8 µM

Potency, inconclusive:
CC(C)(C)OC(=O)N1CCC(Cc2cc(-c3ccccc3)no2)(C(=O)O)CC1 35.5 µM [activator, single point], CCOc1ccc(OCCC(=O)OCC(=O)Nc2cc(S(=O)(=O)N3CCOCC3)ccc2OC)cc1 3.55 µM [activator, single point], COc1ccc(OC)c(S(=O)(=O)Nc2ccc3c(c2)n(C)c(=O)n3C)c1 17.8 µM [activator, single point], O=S(=O)(NCc1ccco1)c1cnc(Cl)c(Cl)c1 35.5 µM [activator, single point], CC(C)Cc1cc(C(=O)Nc2cc(Cl)ccc2Cl)no1 31.6 µM [activator, single point], COc1ccc(C(C)(O)c2nc(-c3cnc4ccccc4c3)cs2)cc1 (stereo unspecified) 12.6 µM [activator, partial curve], CC(C)C[C@@H]1COc2cccc(N3CCSCC3)c2S(=O)(=O)N1 17.8 µM [activator, single point], C=CCSc1nc(N)c(C(=O)Nc2ccccc2OC)cc1C(=O)Nc1ccccc1 2.82 µM [activator, single point], CN1C(=O)C(CC(=O)Nc2ccc(F)cc2)N(CCCc2ccccc2)C1=S (stereo unspecified) 25.1 µM [activator, single point], COc1ccc(CN(C)C(=O)[C@H]2O[C@@H](n3ccc(N)nc3=O)[C@H](O)[C@@H]2O)cc1OC 31.6 µM [activator, single point], O=C1c2ccccc2C(c2nnnn2Cc2ccccc2)N1CCCn1ccnc1 (stereo unspecified) 5.62 µM [activator, single point], Cc1ccccc1-c1cc2nc(NCCOc3ccccc3Cl)n(C)c(=O)c2s1 14.1 µM [activator, single point], COc1cccc(CNc2ccc(F)c(Cl)c2)c1OC 14.1 µM [activator, single point], CC(C)CC(COCc1cccc(Cl)c1)N1CCN(C(=O)c2ccc(C(F)(F)F)cc2)CCC1=O (stereo unspecified) 22.4 µM [activator, single point], Cc1ccc2c(c1)N(C(=O)CCC(=O)NCCCN1CCOCC1)CC(C)O2 (stereo unspecified) 35.5 µM [activator, single point], CCOc1ccccc1C(=O)N[C@H](C(=O)OCC(=O)Nc1nnc(-c2ccccc2)o1)C(C)C 31.6 µM [activator, single point], CCCCN1C(=O)C(C(=O)OCc2ccccc2)CC2=C1CCCC2=O (stereo unspecified) 35.5 µM [activator, single point], COCc1nnc(NC(=O)c2ccc(S(=O)(=O)N(C)C3CCCCC3)cc2)o1 35.5 µM [activator, single point], Brc1ccc(COc2ncnc3ccccc23)cc1 17.8 µM [activator, partial curve], CCCCCCCC(=O)OCC(=O)[C@@]1(O)CC[C@H]2[C@@H]3CCC4=CC(=O)CC[C@]4(C)[C@H]3[C@@H](O)C[C@@]21C 31.6 µM [activator, single point], COc1cc(/C=C/C(=O)OCC(=O)c2ccc[nH]2)cc(OC)c1OC 5.62 µM [activator, single point], C/C=C/c1ccc2c(c1)O[C@H](CN(C)CC1CCOCC1)[C@@H](C)CN([C@H](C)CO)S2(=O)=O 5.62 µM [activator, single point], CC(C)(C)c1nnc(N/N=C/c2cc(Br)ccc2O)n(N)c1=O 5.62 µM [activator, single point], CC1COc2ccccc2N1S(=O)(=O)c1ccc(Cl)cc1 (stereo unspecified) 11.2 µM [activator, single point], CN(C(=O)c1ccc(NC(=O)Cc2cccc(NC(=O)C3CCCN(C(=O)C4CCC4)C3)c2)cc1)C1CC1 (stereo unspecified) 3.55 µM [activator, single point], N#CC1(NC(=O)CSc2nnc3n2CCCCC3)CCCCC1 20 µM [activator, single point], O=c1cc(-c2ccc(Cl)c(Cl)c2)[nH][nH]1 22.4 µM [activator, single point], O=C(c1ccccc1)N1CC(COc2ccccc2)OC(c2cccnc2)O1 (stereo unspecified) 12.6 µM [activator, single point], Cc1cc(C)cc(Nc2ncnc3nc[nH]c23)c1 5.01 µM [activator, single point], O=C(Nc1nc(-c2ccccn2)cs1)C1COc2ccccc2O1 (stereo unspecified) 6.31 µM [activator, single point], c1ccc2c(c1)Cc1cc3ccccc3nc1-2 35.5 µM [activator, single point], Cc1c(C(=O)N(C)Cc2ccc(F)cc2)sc(=O)n1Cc1ccc(Cl)c(Cl)c1 25.1 µM [activator, single point], CCN1C(=O)[C@H]2[C@@H](c3ccc(-c4cccc(Cl)c4)c(OC)c3)N3CCCC[C@@]3(C(=O)OC)[C@H]2C1=O 35.5 µM [activator, single point], COc1ccc(Cn2c(CO)cnc2SCc2ccc(F)cc2)cc1 35.5 µM [activator, single point], O=S(=O)(Nc1c(O)ccc2ccccc12)c1cccc2ccccc12 20 µM [activator, single point], CC(=O)COc1cc(C)cc2oc(=O)cc(-c3ccccc3)c12 3.98 µM [activator, partial curve], O=C(O)c1ccc(-n2cccc2/C=C2/NC(=O)N(c3cccc(Cl)c3)C2=O)cc1 35.5 µM [activator, single point], CCOc1ccc(CN2C(=O)c3ccccc3C2=O)cc1C(=O)O 17.8 µM [activator, single point], O=C(O)CC/C(=C\c1ccc2c(c1)OCO2)c1nc2ccccc2s1 8.91 µM [activator, partial curve], Cc1ccc(/C=C/C(=O)O)cc1S(=O)(=O)Nc1ccc(C(=O)O)cc1 3.55 µM [activator, partial curve], CC(C)N(C(=O)[C@H]1C[C@H](CC(=O)NCC23CC4CC(CC(C4)C2)C3)C(=O)N2CCc3c([nH]c4ccc(Cl)cc34)[C@]12C)C(C)C 31.6 µM [activator, single point], OC[C@@H]1CN(Cc2ccc(F)cc2)C[C@H](n2cnc3c(N4CCN(c5ccccc5)CC4)ncnc32)O1 31.6 µM [activator, single point], Cc1cccc(C(=O)NC(=S)NNC(=O)COc2c(C)cccc2C)c1 35.5 µM [activator, single point], CN(C(=O)Cn1cnc2onc(-c3ccc(F)cc3)c2c1=O)c1ccccc1Cl 35.5 µM [activator, single point], c1ccc2c(N=NN3CCCCC3)ccnc2c1 25.1 µM [activator, single point], Cc1cc(C)c2cc(C#N)c(NCCNC(=O)c3ccncc3)nc2c1 5.62 µM [activator, single point]
